This note sets out measurements from the RNAGym collection of RNA variant scans (doi:10.1093/nar/gkz1192).

The source gives no read counts; variants with many changes may rest on few reads.

First the molecules themselves.
B1: CPEB3 Ribozyme (parent)
chain: UAACAGGGGGCCACAGCAGAAGCGUUCACGUCGCAGCCCCUGUCAGAUUCUGGUGAAUCUGCGAAUUCUGCUGUAUAUCUC

The data set covers variants of B1. Description: self-cleavage, relative activity (ratio to wild type); higher = more cleavage; in vitro, sequencing. In a few lines:
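Relative activity compares each variant's cleaved/total read fraction with that of the unmutated ribozyme. To get these fractions, barcoded CPEB3 ribozyme libraries from rounds of error-prone PCR were transcribed with T7 RNA polymerase for 5 hours at 37°C and then given 15 min of DNase I treatment before EDTA was added. The RNAs were reverse transcribed with template switching and sequenced on Illumina, and DNA sequencing linked barcodes to variants. A minimum of 5 reads applied, and three batches were averaged.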
Regarding U43A A56G A57G U72A, the self-cleavage came out at 0.36. For the variant U43A A47G A65G U67C U72C, the self-cleavage came to 0.32. With G42U U49C U60C, the self-cleavage worked out at 0.14.

On to U43A C44U G52A U69A, for which the self-cleavage came out at 0.36. For the variant G42C U49A U51A U66C, the self-cleavage turned out to be 0.05. With U41C U43C U51C A64U, the self-cleavage was found to be 0.17.

As to U43C A47G U69C U76A U80C, the self-cleavage is 0.16.

As for U43C G73U U76A, the self-cleavage amounted to 0.68. As to U41G U43A U51C A56G A64G, the self-cleavage came out at 0.07. On to U41C U49C U60C U69C, for which the self-cleavage is 0.13.

For G42A A45U A64U, the self-cleavage was found to be 0.23. In the case of U43C U51C G52C U60C A64U A75G, the self-cleavage came out at 0.18. Consider U43C U48C A57G U76A A77C, for which the self-cleavage is 0.74. With U41C U60C U72G, the self-cleavage was determined as 0.46.

On to U41C G52A U72A, for which the self-cleavage came out at 1.1. As to G42U A64G U80C, the self-cleavage was 0.76. As for U41C U43C U54A U80A, the self-cleavage stood at 0.58. As to G42A U51C U58G, the self-cleavage is 0.16.

In the case of U41C U43A G61A U80C, the self-cleavage is 0.26.

Take G42C C71G A75U: the self-cleavage was 0.12.

Regarding U43C A64G U72C U78G, the self-cleavage amounted to 0.64. In the case of G42C U48C A64G U66C U80A, the self-cleavage stood at 0.16.

Take U41G A77U U78C: the self-cleavage amounted to 0.17.

In the case of G42C U72C U78G, the self-cleavage stood at 0.25. As for U43C U49C U51A U69A, the self-cleavage amounted to 0.23.

In the case of U43C U51A U54C, the self-cleavage was determined as 0.27. Regarding U41G A64G U80C, the self-cleavage came to 0.59.

U41G U49C U67C: the self-cleavage was found to be 0.15.

For U41C U48G U78C, the self-cleavage turned out to be 0.34. On to U41C U43A U48A G55A, for which the self-cleavage was determined as 0.2. In the case of U43C U49A A56G A64U, the self-cleavage is 0.1. The value for U41C U58C U67C A75G was 0.4; that for U41C U43A U78C was 0.66; that for U43C A64G A77G U78C was 0.14. The value for G42A A45G U58C was 0.41; that for U43C U54C A77U was 0.21. For the variant U43A A64U U67A, the self-cleavage came to 0.25. Consider U41C U43C U69C, for which the self-cleavage stood at 0.35. Take G42A A45U A56U: the self-cleavage was determined as 0.12.

U41C U48C U60A A65G: the self-cleavage is 0.27. For the variant U41C U43C U51C U54A A57G U67C U74A, the self-cleavage came out at 0.24. For the variant U43C A75U U80C, the self-cleavage was 0.79. As to U43C A47U A56G, the self-cleavage is 0.16. Consider U43A U49A G52U A56U C62U, for which the self-cleavage was 0.09.

In the case of U43A U72C U76A U80C, the self-cleavage came to 1.29.

U41C U43A A57G: the self-cleavage came to 1.17. On to U41C U51C U74C U78C, for which the self-cleavage is 1.24.

U41C U51A A75G: the self-cleavage was found to be 1.15. Regarding G42U U43C U51C G53A U60A U74C U80C, the self-cleavage came out at 0.19.

For the variant U41C U43C A47G, the self-cleavage is 0.36. In the case of U43C A45G A65G, the self-cleavage was 0.15. In the case of U43C A47G U69A U76G, the self-cleavage was determined as 0.17. The value for U43C C50G U58C was 0.11. Regarding U41C U49A A64G U67C U74C, the self-cleavage worked out at 0.47.

In the case of U41C U74A U80C, the self-cleavage is 1.25. Regarding U43A U51C A56G U67C U74C, the self-cleavage amounted to 0.45.

On to U41C U43C U80A, for which the self-cleavage worked out at 0.44. Turning to U43A U54C A77U, the self-cleavage was found to be 1.42. Consider U43C U51A A56G U60A U80C, for which the self-cleavage came out at 0.11. In the case of U43A U67C U74C it was 0.45; in that of U41C U54G A57G, 0.51; in that of U43C U49C U67C U78A, 0.04. U43A A56U C71A: the self-cleavage was 0.51. With U41C U54C A57G A65U, the self-cleavage was 0.1. Take U43C C62U U72A U80C: the self-cleavage is 0.09. Regarding U43C A56G A57U, the self-cleavage was 0.07.

With U43C A56U U60C U78G, the self-cleavage worked out at 0.06. Consider U41C U69G U76C, for which the self-cleavage was determined as 0.89. G42C U60G A64G U66C U69G A75G: the self-cleavage amounted to 0. Take U43C A56C U80C: the self-cleavage came to 0.28. U41C U49C G73U A77U: the self-cleavage is 0.88.

On to U43A C62A U76A, for which the self-cleavage was found to be 1.07. On to U41G U43C U48C G53A U60A U69C, for which the self-cleavage was 0.19.

Take U43A U54A C68G: the self-cleavage amounted to 0.79. U43C U54C C62U: the self-cleavage stood at 0.08. In the case of U41C U51A U67G G70A U72A, the self-cleavage came out at 0.35. With U43C A45G U80G, the self-cleavage amounted to 0.63. The value for U43C A45G U48C A57G was 0.68; that for U41C G55A C59A was 0.19. The value for G42A U49C U78C was 0.49.

Regarding U41C U48C U60G G70A, the self-cleavage is 0.24.

For the variant U43C C50A U58A U67A, the self-cleavage was determined as 0.13. Turning to U41C U51C U54G U58C U60C A64G, the self-cleavage was 0.29. Regarding U41C U78C U80C, the self-cleavage stood at 1.05. In the case of U43A U51A A65U, the self-cleavage stood at 0.12. As for U43A U51A A65G, the self-cleavage came out at 0.47.

On to U43C A47G U54A A56U, for which the self-cleavage is 0.38.

Consider U43C U54C A65G U67C, for which the self-cleavage was 0.08. In the case of U43C A64U U80G it was 0.16; in that of U43C U49G A64U, 0.19. Take U41G U66C U72C: the self-cleavage came out at 0.2.

For U41C U43A U49C U69C, the self-cleavage worked out at 0.23.

In the case of U41C U49A U60A A64U U78C, the self-cleavage turned out to be 0.1. As for U41C U67A U76C, the self-cleavage was determined as 0.51. The value for U41C U49C U66C was 0.19; that for U43A U60A U66C was 0.91. In the case of U41C U48C U54A U58C, the self-cleavage came to 0.32. With U41C U48C U60A U72G, the self-cleavage was found to be 0.25. For U43C U51A U78C, the self-cleavage turned out to be 0.63.

As for U43A C50U A56U, the self-cleavage came out at 0.97. As to U41C U43A C71U, the self-cleavage came out at 0.58. In the case of U43A A57U U80C, the self-cleavage is 0.71. For the variant U41C U54C G70U, the self-cleavage came to 0.21. As for G42U A75G U76G, the self-cleavage is 0.21. The value for U41C U43G U48C U78C was 0.08; that for G42A U43C U51C U67C was 0.29; that for G42A A45C U72A U74C U76A was 0.33. As to U43A A47G U51A A64U, the self-cleavage was found to be 0.13. As for U43A C44G U67C, the self-cleavage stood at 0.24. Turning to U43A G52U U60A, the self-cleavage was found to be 0.8. As to U43C G46A A77G, the self-cleavage is 0.2. Consider U41C U49A A57G U67C, for which the self-cleavage worked out at 0.16.

Consider U43C U48C U54C A77U C79U, for which the self-cleavage turned out to be 0.2. For U41C U49A U69C, the self-cleavage was found to be 0.33. With U41C U43A A64G G70U, the self-cleavage was determined as 0.12. The value for U41C U66C G73A was 0.8; that for U43A U49C U51C A65G U69A was 0.29. U41C U54A U60C: the self-cleavage was 0.8. As to U43C U48C G53A U60A U69C, the self-cleavage was 0.14. Turning to U41C U54C A56G G63A, the self-cleavage was determined as 0.44. The value for U41C U66C U69G was 0.46; that for U41C U66C U69A was 0.64; that for U41C U48C A64U was 0.33. In the case of U43C A45U U60A it was 0.9; in that of U43C A57G U72C A77G U78C, 0.24; in that of U43C A64G U67C, 0.12.

On to U41C U54C A56G C59U U72A, for which the self-cleavage was 0.4. For the variant U41C G53C A64G, the self-cleavage amounted to 0.71. As to U41C U43C U51C, the self-cleavage is 0.46.

For the variant U43A U60A A65G, the self-cleavage was determined as 0.53. In the case of U43C A47G G63U A64G it was 0.61; in that of U41C U66C U67A, 0.36. Take U43C A56G U60C U69C: the self-cleavage was 0.08.

For the variant U43C U48A U66A, the self-cleavage came out at 0.35. On to U41C U54A A57G U69C, for which the self-cleavage is 0.46.

Take U41C U51A A65G: the self-cleavage turned out to be 0.6.

For the variant U43C A45G U54C, the self-cleavage was determined as 0.21. On to U43C A47G U48C, for which the self-cleavage is 0.16. In the case of U43A U54C U67G U74C C81G it was 0.58. Take U41C U43C G61U U69A: the self-cleavage was 0.14. The value for U43A A56G A64C was 0.37; that for U43C A45G A64U U67C was 0.14; that for U41C U43C U76A U80C was 0.43.

For U43A A45U U80G, the self-cleavage was 1.13.

Take U43C U49A U54C: the self-cleavage is 0.21. With U43C A45U A57G U60C U78C, the self-cleavage worked out at 0.04. Regarding U41C U69C A75G, the self-cleavage was determined as 0.31. Consider U43C A47G U54G U67C U78G, for which the self-cleavage worked out at 0.31. Consider U43C A45U U51C, for which the self-cleavage turned out to be 0.18. Turning to U41C U69C U74A C79U, the self-cleavage came to 0.86.

Turning to U41C U48C U78C, the self-cleavage was 0.8. For the variant U43A A45U A47G A57G, the self-cleavage was found to be 0.15. For the variant U43C G55U A56U A64U U74C, the self-cleavage was found to be 0.1. In the case of U43C A45C U80G it was 0.06; in that of U41C U54C A65G, 0.39.

As for U43A A47G A56G U78A, the self-cleavage came to 0.49.

As to U43C A47G A56U, the self-cleavage was determined as 0.08. Take U43A A47U U72C: the self-cleavage stood at 0.69. Turning to U43A U48C A64G, the self-cleavage was determined as 0.52.

For the variant U41C U60C U67C, the self-cleavage amounted to 0.25.

Consider U41G U43A U48C G61U, for which the self-cleavage came to 0.19. Regarding U43C U48C U74C U76C, the self-cleavage stood at 0.52. The value for U41G U54C U66C U69G U78C was 0.1.

In the case of U43A U48C U54C U66A, the self-cleavage came out at 0.18. Regarding U41C U43C U69A U76C, the self-cleavage was determined as 0.2. As to U43A U54A A64G U67A, the self-cleavage is 0.43. For the variant U43A A45G U54C A56G, the self-cleavage stood at 0.78.
